Experimental findings from PubChem BioAssay AID1645882 (National Center for Advancing Translational Sciences (NCATS), 2021) are described below.

The campaign covered roughly 16,000 compounds. About 120 (0.75%) were called active. Not shown: some 4% with an inconclusive outcome. Calls come from the whole dose curve; as a rule, active = well fitted inhibition curve with a large enough effect; inconclusive = small, poorly fitted or top-dose-only effect; inactive = no such curve, though single readings can be large or run the other way. Some of the results follow. Where a SMILES comes first, the peptide text is derived from it. Bridges are numbered along the chain shown (N, C = ends). [ ]: non-standard residue; d: D form. hArg = N=C(N)NCCCC[C@H](N)C(=O)O; Mpa = O=C(O)CCS

Chain of UniProt O95398 (O95398 whole entry, looked up): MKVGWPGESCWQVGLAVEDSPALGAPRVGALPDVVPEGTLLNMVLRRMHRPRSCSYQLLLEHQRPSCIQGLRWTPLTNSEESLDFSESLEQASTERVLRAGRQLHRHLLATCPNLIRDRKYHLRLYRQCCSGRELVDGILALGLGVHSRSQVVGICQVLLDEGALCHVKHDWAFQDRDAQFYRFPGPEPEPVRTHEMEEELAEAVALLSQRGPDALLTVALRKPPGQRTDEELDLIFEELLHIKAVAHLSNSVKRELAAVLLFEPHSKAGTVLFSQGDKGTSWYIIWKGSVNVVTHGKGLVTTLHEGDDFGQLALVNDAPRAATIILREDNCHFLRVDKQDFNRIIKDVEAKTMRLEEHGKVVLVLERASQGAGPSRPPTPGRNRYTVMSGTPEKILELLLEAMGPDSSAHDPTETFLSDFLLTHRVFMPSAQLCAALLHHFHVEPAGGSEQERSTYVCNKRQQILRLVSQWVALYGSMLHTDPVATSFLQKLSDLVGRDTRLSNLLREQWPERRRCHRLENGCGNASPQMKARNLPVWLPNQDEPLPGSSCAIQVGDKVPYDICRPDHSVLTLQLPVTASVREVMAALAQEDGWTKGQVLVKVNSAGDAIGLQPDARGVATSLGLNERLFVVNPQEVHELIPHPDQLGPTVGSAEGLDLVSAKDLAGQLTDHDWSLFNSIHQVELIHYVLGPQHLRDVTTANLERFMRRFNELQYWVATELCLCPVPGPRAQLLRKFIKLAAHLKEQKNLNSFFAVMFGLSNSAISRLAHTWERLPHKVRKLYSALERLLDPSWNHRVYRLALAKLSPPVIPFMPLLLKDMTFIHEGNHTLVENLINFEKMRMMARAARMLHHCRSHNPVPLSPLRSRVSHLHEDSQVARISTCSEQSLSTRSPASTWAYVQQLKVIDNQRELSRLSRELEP

This assay has as its target Rap guanine nucleotide exchange factor 3 (Homo sapiens) (UniProt O95398). Put plainly: Validation qHTS for antagonist of cAMP-regulated guanine nucleotide exchange factor 3 (EPAC1). Note: nearly all actives have a fitted effect of over 75% in size. The settings on record: EPAC1 Rap1B-BODIPY-GDP exchange, fluorescence; series mostly up to 150 µM; activity change, negative = inhibition: at the top concentration. The method in brief:
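EPAC1 (100 nM) mixed with 250 nM RAP1B-BODIPY-GDP and 50 uM GDP; compounds in concentration series, 5 min at room temperature. Fluorescence (ex 480/em 540 nm) read every 5 min for 30 min; normalized to ATA control and DMSO.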
With `COc1cc(Nc2c(C#N)cnc3cc(OCCCN4CCN(C)CC4)c(OC)cc23)c(Cl)cc1Cl`, the “activity change, negative = inhibition” value is inactive: 14.9%.

Turning to `COCCNC(=O)c1cn(C2CCN(C3CCCC3)CC2)nn1`, the “activity change, negative = inhibition” value is inactive: 10.1%.

Regarding `C[C@@]12CC(=O)C3=C(CCCC3=O)N1CCc1ccccc12`, the “activity change, negative = inhibition” value was inactive: 4.48%.

Take `COc1ccc(CNc2ncncc2-c2ccccc2CN(C)C)c(OC)c1`: the “activity change, negative = inhibition” value is inactive: -2.15%.

With `Cc1noc(C)c1-c1cc(NC2CC2)ncn1`, the “activity change, negative = inhibition” value was inactive: 12.2%.

With `O=C(NCc1ccncc1)c1cnn(-c2nccc(-c3cccs3)n2)c1C1CC1`, the “activity change, negative = inhibition” value was inactive: 8.39%.

As to `Oc1ccc2c(c1)OCC1c3cc4c(cc3OC21)OCO4` (stereo not given), the “activity change, negative = inhibition” value is inactive: 13.4%.

For the compound `COc1ccc(C)cc1N1C(=O)[C@@H]2C[C@H]1CN2Cc1cccc(OC)c1O`, the “activity change, negative = inhibition” value was inactive: 2.82%.

As for `c1ccc2cc(C3=NCCN3)ccc2c1`, the “activity change, negative = inhibition” value is inactive: 18.7%.

Turning to `CC(=O)NCCNc1ccnc(-c2ccccc2C)n1`, the “activity change, negative = inhibition” value was inactive: -2.3%.

With `COC(=O)C[C@H]1c2ccc(C(F)(F)F)cc2S(=O)(=O)N1Cc1ccccc1`, the “activity change, negative = inhibition” value is inactive: -14.3%.

With `Cc1cnc(-n2ncc(C(=O)NC(C)(C)CO)c2-c2cccs2)nc1-c1ccc(F)cc1`, the “activity change, negative = inhibition” value was inactive: 9.12%.

Take `COc1ccc(SC[C@H](Cc2ccccc2)N2CC[C@@H](NC(=O)OCc3ccccc3)CCC2=O)cc1`: the “activity change, negative = inhibition” value was inactive: -8.55%.

With `COC(=O)[C@@H]1C[C@@H](NC(=O)c2cnsn2)CN1Cc1ccc(Cl)cc1`, the “activity change, negative = inhibition” value is inactive: 9.41%.

As to `O=C(c1csnn1)N1CCC2(CCCN(c3ccc(-c4ccccc4)cc3)C2)CC1`, the “activity change, negative = inhibition” value is inactive: 17.6%.

For `COc1ccc(-n2c(=O)cnc3cnc(N4CCNCC4)nc32)cc1`, the “activity change, negative = inhibition” value was inactive: 21.2%.

For the compound `Cc1cc(C)c2cccnc2c1O`, the “activity change, negative = inhibition” value is inactive: -17.1%.

Turning to `COc1cc2c(C=O)c3c4c(cc(OC)c(OC)c4c2cc1OC)CCN3C`, the “activity change, negative = inhibition” value is inactive: -21.5%.

For `CN1CCN(c2cc(-c3ccc(N(C)C)cc3)ncn2)CC1`, the “activity change, negative = inhibition” value was inactive: 8.42%.

`CN1[C@@H]2CCC[C@@H]1CC(NC(=O)c1nn(C)c3ccccc13)C2` (stereo not given in full): the “activity change, negative = inhibition” value was inactive: 27.2%.

`COc1ccccc1-c1nccc(NCc2cccnc2)n1`: the “activity change, negative = inhibition” value is inactive: 12.8%.

In the case of `CC1CCN(CC[C@H]2CCCN2S(=O)(=O)c2cccc(O)c2)CC1`, the activity change, negative = inhibition result was “inactive”.

For `c1cncc(CNc2ncncc2-c2ccc3c(c2)OCO3)c1`, the “activity change, negative = inhibition” value is inactive: 18.5%.

Take `CC(C)C(N)C(=O)OCCOCn1cnc2c(=O)[nH]c(N)nc21` (stereo not given): the “activity change, negative = inhibition” value was inactive: 1.48%.

For `Cc1cnc(CNc2cc(-c3c(C)noc3C)ncn2)cn1`, the “activity change, negative = inhibition” value was inactive: 6.48%.

In the case of `CC(=O)N1CCC2(CCCN(C(=O)Nc3cccc(F)c3)C2)CC1`, the “activity change, negative = inhibition” value is inactive: 8.69%.

With `COc1ccccc1-c1nc(NC2CC2)c2ccccc2n1`, the “activity change, negative = inhibition” value is inactive: 3.26%.

As to `O=c1c(-c2cc(F)cc(F)c2)nc2cnc(N3CCNCC3)nc2n1-c1ccccc1`, the “activity change, negative = inhibition” value was inactive: 2.96%.

Take `O=c1[nH]cnc2nc[nH]c12`: the “activity change, negative = inhibition” value was inactive: 11.5%.

For the compound `Nc1ccc2nc[nH]c2c1`, the “activity change, negative = inhibition” value is inactive: 18.1%.

Turning to `CC(=O)OC1CC[C@]2(C)C(=CCC3C4CCC(C(C)CCCC(C)C)[C@]4(C)CCC32)C1` (stereo not given in full), the “activity change, negative = inhibition” value was inactive: 17.2%.

In the case of `CC(C)(C)c1ccc(O)c(O)c1`, the “activity change, negative = inhibition” value was inactive: 33.8% [at 320 µM].

`C[C@@](Cc1ccc(O)c(O)c1)(NN)C(=O)O`: the activity change, negative = inhibition entry is “inactive”.

With `CC(NC(=O)c1cccnc1)c1nnc2n1CCN(Cc1ccc(-c3ccccc3Cl)o1)CC2` (stereo not given), the “activity change, negative = inhibition” value is inactive: -0.694%.

For the compound `Cc1ccc(SCCN2CCC(NC(=O)OCc3ccccc3)CCC2=O)cc1` (stereo not given), the “activity change, negative = inhibition” value is inactive: 6.47%.

Regarding `c1cncc(OC2CCN(Cc3ccc4c(c3)CN(Cc3ccc5c(c3)CCO5)CCO4)CC2)c1`, the “activity change, negative = inhibition” value is inactive: 8.91%.

As for `COc1ccc(Nc2ncc3nc(-c4cccs4)c(=O)n(Cc4cccc(OC)c4)c3n2)cc1`, the “activity change, negative = inhibition” value was inactive: 20.1%.

In the case of `COC(=O)C1N[C@@H]([C@@H](NC(=O)COc2ccccc2)C(=O)NC2CC2)SC1(C)C` (stereo not given in full), the “activity change, negative = inhibition” value is inactive: 2.3%.

In the case of `Cc1cccc(CNC(=O)c2cnn(-c3nccc(-c4ccccc4F)n3)c2C)n1`, the “activity change, negative = inhibition” value is inactive: 18.3%.

Turning to `OCCN1CCN(Cc2ccc3c(c2)CN(Cc2cc4ccccc4o2)CCO3)CC1`, the “activity change, negative = inhibition” value is inactive: 14.7%.

In the case of `C=C1C(=O)O[C@@H]2C3OC3(C)CC/C=C(\C)CC[C@@H]12` (stereo not given in full), the “activity change, negative = inhibition” value is inactive: 9.55%.

Turning to `CCOC(=O)COc1ccc2c(C)c(CCN(CC)CC)c(=O)oc2c1`, the “activity change, negative = inhibition” value is inactive: 36.3%.

As for `O[C@@H]([C@H](O)[C@H](O)CBr)[C@H](O)CBr`, the “activity change, negative = inhibition” value was inactive: -12.8%.

Consider `C#CCN(Cc1ccc(OC)cc1)S(=O)(=O)C=C`, for which the “activity change, negative = inhibition” value was inactive: -2.31%.

Consider `CCCS(=O)(=O)NCc1c(C)ncc2c1CCN(C(=O)/C=C/c1cccc(Cl)c1)C2`, for which the “activity change, negative = inhibition” value was inactive: 7.71%.

As to `COc1cc(C(O)CO)ccc1O` (stereo not given), the “activity change, negative = inhibition” value is inactive: 23.4% [at 75.8 µM].

Consider `CC[C@H](C)[C@H](N)C(=O)O`, for which the “activity change, negative = inhibition” value is inactive: 13.9%.

With `O=C(c1ccncc1)N1CCC2(CC1)CCN(c1ccc(-c3ccccc3)cc1)CC2`, the “activity change, negative = inhibition” value was inactive: 33.7%.

In the case of `CC(=O)SC[C@@H](C)C(=O)N1CCC[C@H]1C(=O)N[C@@H](Cc1ccccc1)C(=O)O`, the “activity change, negative = inhibition” value was inactive: 22.2%.

On to `NC[C@@H]1O[C@H](C23CC4CC(CC(C4)C2)C3)Cc2c1ccc(O)c2O`, for which the activity change, negative = inhibition result was “inactive”.

As for `c1ccc2c(N3CCCCCC3)nc(CN3CCCCC3c3nccs3)nc2c1` (stereo not given), the “activity change, negative = inhibition” value is inactive: 11.8%.

On to `Cc1cnc2ccc3ccccc3c2c1C`, for which the “activity change, negative = inhibition” value was inactive: 13.4%.

With `Cn1cccc1C(=O)N1CCC[C@@]2(CCN(Cc3nccs3)C2)C1`, the “activity change, negative = inhibition” value is inactive: 13.6%.

As to `NC(=O)[C@@H]1CSSCCC(=O)N[C@@H](CCCCN=C(N)N)C(=O)NCC(=O)N[C@@H](CC(=O)O)C(=O)N[C@@H](Cc2c[nH]c3ccccc23)C(=O)N2CCC[C@H]2C(=O)N1` ([Mpa][hArg]GDWPC-NH2; disulfide 1-7), the “activity change, negative = inhibition” value is inactive: 8.87%.

As for `CCNC(=O)[C@@H]1CCCN1C(=O)[C@H](CCCN=C(N)N)NC(=O)[C@H](CC(C)C)NC(=O)[C@@H](Cc1c[nH]c2ccccc12)NC(=O)[C@H](Cc1ccc(O)cc1)NC(=O)[C@H](CO)NC(=O)[C@H](Cc1c[nH]c2ccccc12)NC(=O)[C@H](Cc1cnc[nH]1)NC(=O)[C@@H]1CCC(=O)N1`, the “activity change, negative = inhibition” value is inactive: 14.9%.

On to `NCCCCN`, for which the activity change, negative = inhibition entry is “inactive”.

For `COC(=O)c1ccc(C(=O)N2CCc3c(C(=O)NC(C)c4ccco4)c(OC)cc(=O)n3CC2)cc1` (stereo not given), the “activity change, negative = inhibition” value is inactive: 5.93%.

For the compound `CN(Cc1ccc(C(C)(C)C)cc1)Cc1cccc2ccccc12`, the activity change, negative = inhibition result is “inactive”.

Consider `COc1ccc2[nH]cc(CCNc3ncncc3-c3cccc(NS(C)(=O)=O)c3)c2c1`, for which the “activity change, negative = inhibition” value is inactive: -13.3%.

For `COc1cccc(Nc2ncc3nc(CCc4ccccc4)c(=O)n(CCC#N)c3n2)c1`, the “activity change, negative = inhibition” value was inactive: 11.1%.

As for `Cc1cccnc1-c1cccc2c1OC(CNC(=O)/C=C/c1cccs1)C2` (stereo not given), the “activity change, negative = inhibition” value was inactive: -6.14%.

Take `N=C(CC(O)COc1ccccc1-c1ccccc1)N1CCCCC1` (stereo not given): the “activity change, negative = inhibition” value is inactive: 13.8%.

As to `CN(C)c1ncc2ncc(=O)n(CCc3ccccc3)c2n1`, the “activity change, negative = inhibition” value was inactive: 6.75%.

`COc1ccc(CNc2nc(-c3ccccc3OC)nc3ccccc23)c(OC)c1`: the “activity change, negative = inhibition” value is inactive: -2.83%.

As to `CC1(C)Oc2ccc(C#N)cc2[C@@H](OC2=CC(=O)CC2)[C@@H]1O`, the activity change, negative = inhibition entry is “inactive”.
